{"source": "patent US20150272935A1", "about": "“Use of a Factor Xa Inhibitor for Treating and Preventing Bleeding Events And Related Disorders in Patients Having Sensitivity to Vitamin K Antagonists Used As Anticoagulants” (priority 2014, published 2015)", "key": {"[1]": {"tested_on": "patients with atrial fibrillation (AF)", "conditions": "edoxaban treated subjects"}, "[2]": {"tested_on": "patients with atrial fibrillation (AF)", "experiment": "ENGAGE AF-TIMI 48 genetic analysis: safety (bleeding) outcomes by genotype bin", "conditions": "for HR for bleeding: first 90 days; for HR (95% CI) for any overt bleeding: trial overall", "description": "The pre-specified genetic analysis included 14,348 participants, who were genotyped for functional genetic variants in CYP2C9 and VKORC1. The relationships among genotype, pharmacologic response, and clinical outcomes during oral anticoagulant therapy were tested.\nThe INR values were measured using an encrypted point-of-care device.\nDuring follow-up, safety and efficacy were recorded. A clinical endpoint committee, unaware of study treatment, adjudicated all deaths and suspected cases of bleeding, cerebrovascular events, systemic embolic event (SEE), and myocardial infarction (MI). Any overt bleeding was defined as ISTH major, clinically relevant non-major, and minor bleeding.\nFor bleeding events, a “major bleeding event” is defined as a clinically overt bleeding event (i.e., bleeding that is visualized by examination or radiologic imaging) that meets ≧1 of the following: 1. fatal bleeding; 2. Symptomatic bleeding in a critical area or organ, such as retroperitoneal, intracranial, intraocular, intraspinal, intraarticular, pericardial, or intramuscular with compartment syndrome; 3. […] Each 1 unit of packed red blood cell or whole blood is counted as a 1.0-g/dL decrease in hemoglobin. In the case of surgical procedural-related bleeding, the bleeding must be in excess of that normally associated with the surgery/procedure. In the absence of hemoglobin data, a fall of hematocrit of ≧6.0%, adjusted for transfusion, will satisfy the criteria for a major bleeding event.\nMajor bleeding events may also be further sub-classified as life threatening or non-life threatening. A “life-threatening major bleed” is defined as a bleeding event that either is intracranial or is associated with hemodynamic compromise requiring intervention. A “clinically relevant nonmajor bleeding event” is defined as a clinically overt bleeding event that requires medical attention.\nAll other events (e.g., decline in hemoglobin with no overt bleeding event) were classified as “no bleeding events.”\n(http//www.accessdata.fda.gov/drugsatfda_docs/label/2010/009218s1081b1.pdf).\nCox proportional hazards models were used to compare the bleeding and efficacy outcomes among patients using the normal responders as the referent group. Any overt bleeding was evaluated with subcategories of bleeding tested for directional consistency based on hazard ratios and 95% confidence intervals. Efficacy analyses included ischemic stroke and SEE, in addition to mortality.\nAnalyses were conducted among randomized patients with a genetic sample (N=14,348) who received at least one dose of study drug and incorporated an “on-treatment” period, defined as the time between first study-drug dose and the earlier of three days post last dose or end of the treatment period. In a sensitivity analysis, safety and efficacy analyses were adjusted for covariates that differed across genotype bins (race, region, creatinine clearance, and weight) and previous exposure to a VKA."}, "[3]": {"conditions": "0-90 Days, Normal Responder, Edoxaban High Dose vs. Warfarin"}, "[4]": {"conditions": "0-90 Days, Normal Responder, Edoxaban Low Dose vs. Warfarin"}, "[5]": {"conditions": "Beyond 90 Days, Highly Sensitive, Edoxaban High Dose"}, "[6]": {"conditions": "Beyond 90 Days, Highly Sensitive, Edoxaban Low Dose"}, "[7]": {"conditions": "Beyond 90 Days, Highly Sensitive, Edoxaban Low Dose vs. Warfarin"}, "[8]": {"conditions": "Beyond 90 Days, Normal Responder, Edoxaban High Dose"}, "[9]": {"conditions": "Beyond 90 Days, Normal Responder, Edoxaban High Dose vs. Warfarin"}, "[10]": {"conditions": "Beyond 90 Days, Normal Responder, Edoxaban Low Dose"}, "[11]": {"conditions": "Beyond 90 Days, Normal Responder, Edoxaban Low Dose vs. Warfarin"}, "[12]": {"conditions": "Beyond 90 Days, Sensitive, Edoxaban High Dose"}, "[13]": {"conditions": "Beyond 90 Days, Sensitive, Edoxaban High Dose vs. Warfarin"}, "[14]": {"conditions": "Beyond 90 Days, Sensitive, Edoxaban Low Dose"}, "[15]": {"conditions": "Beyond 90 Days, Sensitive, Edoxaban Low Dose vs. Warfarin"}}, "data": [{"smiles": "CN1CCc2nc(C(=O)N[C@@H]3C[C@@H](C(=O)N(C)C)CC[C@@H]3NC(=O)C(=O)Nc3ccc(Cl)cn3)sc2C1.Cc1ccc(S(=O)(=O)O)cc1", "note": "[Edoxaban]", "values": [{"measurement": "impact of VKORC1 genotype on pharmacodynamic response (PT, anti-FXa activity, D-dimer)", "setting": "[1]", "result": "no impact"}, {"measurement": "Intracranial Bleed, HR (95% CI)", "setting": "[2]; [3]", "result": "0.70 (0.20-2.50)"}, {"measurement": "Life-Threatening Bleed, HR (95% CI)", "setting": "[2]; [3]", "result": "0.90 (0.30-2.68)"}, {"measurement": "Intracranial Bleed, HR (95% CI)", "setting": "[2]; [4]", "result": "0.67 (0.19-2.39)"}, {"measurement": "Life-Threatening Bleed, HR (95% CI)", "setting": "[2]; [4]", "result": "0.72 (0.23-2.28)"}, {"measurement": "Life-Threatening Bleed, HR (95% CI)", "setting": "[2]; 0-90 Days, Sensitive, Edoxaban High Dose vs. Warfarin", "result": "0.35 (0.04-3.32)"}, {"measurement": "Intracranial Bleed, HR (95% CI)", "setting": "[2]; 0-90 Days, Sensitive, Edoxaban Low Dose vs. Warfarin", "result": "0.26 (0.03-2.30)"}, {"measurement": "Intracranial Bleed, Event Rates", "setting": "[2]; [5]", "result": 0.0, "unit": "%/year"}, {"measurement": "Life-Threatening Bleed, Event Rates", "setting": "[2]; [5]", "result": 0.3, "unit": "%/year"}, {"measurement": "Life-Threatening Bleed, HR (95% CI)", "setting": "[2]; Beyond 90 Days, Highly Sensitive, Edoxaban High Dose vs. Warfarin", "result": "0.27 (0.03-2.51)"}, {"measurement": "Intracranial Bleed, Event Rates", "setting": "[2]; [6]", "result": 0.3, "unit": "%/year"}, {"measurement": "Life-Threatening Bleed, Event Rates", "setting": "[2]; [6]", "result": 0.5, "unit": "%/year"}, {"measurement": "Intracranial Bleed, HR (95% CI)", "setting": "[2]; [7]", "result": "0.33 (0.03-3.48)"}, {"measurement": "Life-Threatening Bleed, HR (95% CI)", "setting": "[2]; [7]", "result": "0.48 (0.08-2.86)"}, {"measurement": "Intracranial Bleed, Event Rates", "setting": "[2]; [8]", "result": 0.4, "unit": "%/year"}, {"measurement": "Life-Threatening Bleed, Event Rates", "setting": "[2]; [8]", "result": 0.4, "unit": "%/year"}, {"measurement": "Intracranial Bleed, HR (95% CI)", "setting": "[2]; [9]", "result": "0.75 (0.45-1.25)"}, {"measurement": "Life-Threatening Bleed, HR (95% CI)", "setting": "[2]; [9]", "result": "1.04 (0.61-1.77)"}, {"measurement": "Intracranial Bleed, Event Rates", "setting": "[2]; [10]", "result": 0.2, "unit": "%/year"}, {"measurement": "Life-Threatening Bleed, Event Rates", "setting": "[2]; [10]", "result": 0.2, "unit": "%/year"}, {"measurement": "Intracranial Bleed, HR (95% CI)", "setting": "[2]; [11]", "result": "0.27 (0.14-0.55)"}, {"measurement": "Life-Threatening Bleed, HR (95% CI)", "setting": "[2]; [11]", "result": "0.40 (0.20-0.81)"}, {"measurement": "Intracranial Bleed, Event Rates", "setting": "[2]; [12]", "result": 0.2, "unit": "%/year"}, {"measurement": "Life-Threatening Bleed, Event Rates", "setting": "[2]; [12]", "result": 0.3, "unit": "%/year"}, {"measurement": "Intracranial Bleed, HR (95% CI)", "setting": "[2]; [13]", "result": "0.33 (0.15-0.72)"}, {"measurement": "Life-Threatening Bleed, HR (95% CI)", "setting": "[2]; [13]", "result": "0.31 (0.15-0.63)"}, {"measurement": "Intracranial Bleed, Event Rates", "setting": "[2]; [14]", "result": 0.2, "unit": "%/year"}, {"measurement": "Life-Threatening Bleed, Event Rates", "setting": "[2]; [14]", "result": 0.2, "unit": "%/year"}, {"measurement": "Intracranial Bleed, HR (95% CI)", "setting": "[2]; [15]", "result": "0.27 (0.12-0.62)"}, {"measurement": "Life-Threatening Bleed, HR (95% CI)", "setting": "[2]; [15]", "result": "0.24 (0.11-0.51)"}, {"measurement": "interaction between genotype and bleeding with edoxaban versus warfarin", "setting": "[2]; beyond 90 days", "result": "no significant interaction"}, {"measurement": "overall HR for bleeding", "setting": "[2]; beyond 90 days, high-dose edoxaban versus warfarin", "result": "0.88 (95% CI 0.81-0.95)"}, {"measurement": "overall HR for bleeding", "setting": "[2]; beyond 90 days, low-dose edoxaban versus warfarin", "result": "0.69 (95% CI 0.63-0.75)"}, {"measurement": "HR for bleeding", "setting": "[2]; edoxaban high-dose vs. warfarin, highly sensitive responders", "result": "0.45 (0.22-0.90)"}, {"measurement": "HR for bleeding", "setting": "[2]; edoxaban high-dose vs. warfarin, normal responders", "result": "1.13 (0.92-1.39)"}, {"measurement": "HR for bleeding", "setting": "[2]; edoxaban high-dose vs. warfarin, sensitive responders", "result": "0.77 (0.59-1.00)"}, {"measurement": "HR for bleeding", "setting": "[2]; edoxaban low-dose versus warfarin, highly sensitive responders", "result": "0.21 (0.09-0.53)"}, {"measurement": "HR for bleeding", "setting": "[2]; edoxaban low-dose versus warfarin, normal responders", "result": "0.83 (0.67-1.04)"}, {"measurement": "HR for bleeding", "setting": "[2]; edoxaban low-dose versus warfarin, sensitive responders", "result": "0.58 (0.43-0.76)"}, {"measurement": "major bleeding or CRNM bleeding events", "setting": "[2]; medium and high responders to warfarin sensitivity, 30 mg per day or 60 mg per day, 90 day time period", "result": "did not experience major bleeding or CRNM bleeding events"}, {"measurement": "effect of CYP2C9 and VKORC1 variants on bleeding", "setting": "[2]; subjects with AF treated with edoxaban", "result": "no effect"}, {"measurement": "HR (95% CI) for any overt bleeding", "setting": "[2]; high-dose edoxaban vs. warfarin", "result": "0.87 (95% CI 0.82-0.92)"}, {"measurement": "HR (95% CI) for any overt bleeding", "setting": "[2]; low-dose edoxaban vs. warfarin", "result": "0.66 (95% CI 0.62-0.71)"}]}]}
